# The other results are listed elsewhere or left out.
# B1: Cp ZmpB (Clostridium perfringens), Q0TR08 (protein)
# chain: MNKRKIAAIILATMITNLSATTIDVLAQELNTKNNSKVEVSHDDESHQARVSKFDLYNSDKLDAYNQEFQVSRSNIKSINNNGGKYNSSTIDKAIDGNLETHWETGKPNDANFTNEVVVTFNEITNIDRIVYSARRDSARGKGFAKEFEIYASLKDEGDDFNLVSSGEYTESTRDLVEIKFNPTDFKRLKFKFKKADQNWASAAEFMFYKEDKLNEKFNGLFTDSSMNKVSEEFNTLEKLNAFENELKDHPIYDLYKEGLNNARAILTETSENPTKATLGQITYNLNDDYNNQYRMPYKNIKAIKNNGRHYAAQNIEKAIDNDVNTYWETGTLNSSSFNNEVEVEFNDLVTLDRIVYGSRQSDLKGFAEEVYIYASRTSKGDTYKLVATGAHEATKGLVEAKFEPTEFKRVKFKFKKSKQNSATLNELMFYKPDEVYSSIPKLFTDGTMSELSEEFNSLEKINAFKEKAKNHPLYNDFNETIELAESLISNPRKEDVLELEMRGDSISEAKKRKVWNFQDWQITGLSARAGDKITVYVDVAEGDPTPTLLYKQSLTQHGGATSFQLKPGKNEITIPEINYESNGIPKDVIQGGDLFFTNYKSDSQKRAPKVRIEGASKYPVFILGKSDENEVMKELEAYVEKIKAEPKTTPNIFAVSSNKSLEFVQATYALDWYKKNNKTPKYTAEQWDQYIADAMGFWGFDNSKDVNSDFNFRIMPMVKNLSGGAFMNAGNGVIGIRPGNQDAILAANKGWGVAHELGHNFDTGGRTIVEVTNNMMPLFFESKYKTKTRITDQNIWENNTYPKVGLDDYSNNELYNKADSTHLAQLAPLWQLYLYDNTFYGKFERQFRERDFGNKNREDIYKSWVVAASDAMELDLTEFFARHGIRVDDKVKEDLAKYPKPDKKIYYLNDLAMNYKGDGFTENAKVSVSTSGSNGNIKLSFSVDDENKDNILGYEIRRDGKYVGFTSNDSFVDTKSNLDEDGVYVVTPYDRKLNTLNPIEVNALQPTLSVNPVITLALGEEFNEEEYIVAKDIKGNSLSESVKVKSSNVNTSKVGEYEVLYSLEDSKGNEYTKTSKVNVVSRKEYMSDLTPKQSSNGWGTVRKDKSISGGVIGLTRDGDFVDYNKGLGLHSNAEYVYDLEGKDYDYFESYVGVDKAMSSRPASSVIFKVLVDGEEKFNSGVMRSTTPQKYVKVDVKNAKELKLIVNDAGDGDSSDHASFGDAKLATLSSKPIIKGENLAYSMDEKVDLMKGITATDIEDGNITSKVQIKSSDFVEGKSGIFTVVYSVTDSDGLTSECSRTIAVTDKETQLSDLNWKSATIGSGSVRKDRAVSGNQIRLLNEDNSVETFAKGIGTHSYSEIVYNSEGYDIFDTWVGIDRHVADKKVSSVKFKVYVDGELKAETDVMRIDTPKKRLVVDVRNSKEIKLVVDVADNGNNWDHADWADAKFRNLAEYDASELNKAIEEAKKLDLNNYTEESSEALKNAISKGEEALLSKDKETINSALEELNKEMNSLVKVDLNAVINIPDKYLLKSIQNQLNKTGDITLGDMYSLTTLTLSGVEDLTGLENAKNLETLNMDYNEVKDLRPLSKLKKLNTLNAQEQFIAAGELKPSNGKVIGDSKVYNREGKNVAKTIRVVDKNGNTILEQDAKDEFTINTKDLSSGLYGVHVLFEDEGFSGVMFYLFNV
# Assays:
# Assay in all cases: glycan array binding signal (z-score within array); higher = stronger binding
# Settings in all cases: glycan notation: IUPAC condensed, linker removed
# [1] = molecular target: Neu5Ac(a2-3)Gal(b1-3)GlcNAc(b1-6)GalNAc
# Outline: (§1)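 From the Consortium for Functional Glycomics database, 3228 arrays were curated, keeping only those whose protein sequence was available. Binding is given as a within-array Z-score averaged across arrays sharing a protein sequence and across linkers. Negative Z-scores can be read as non-binding.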
# [2] = molecular target: Neu5Ac(a2-3)Gal(b1-3)GlcNAc6S
# Outline: as §1
# [3] = molecular target: Neu5Ac(a2-3)Gal(b1-3)[Fuc(a1-4)]GlcNAc
# Outline: as §1
# [4] = molecular target: Neu5Ac(a2-3)Gal(b1-3)[Fuc(a1-4)]GlcNAc(b1-3)Gal(b1-3)[Fuc(a1-4)]GlcNAc
# Outline: as §1
# [5] = molecular target: Neu5Ac(a2-3)Gal(b1-3)[Fuc(a1-4)]GlcNAc(b1-3)Gal(b1-4)[Fuc(a1-3)]GlcNAc
# Outline: as §1
# [6] = molecular target: Neu5Ac(a2-3)Gal(b1-3)[GlcNAc(b1-6)]GalNAc
# Outline: as §1
# [7] = molecular target: Neu5Ac(a2-3)Gal(b1-3)[Neu5Ac(a2-6)]GalNAc
# Outline: as §1
# [8] = molecular target: Neu5Ac(a2-3)Gal(b1-3)[Neu5Ac(a2-6)]GlcNAc(b1-3)[Fuc(a1-3)[Gal(b1-4)]GlcNAc(b1-6)]Gal(b1-4)Glc
# Outline: as §1
# [9] = molecular target: Neu5Ac(a2-3)Gal(b1-3)]Neu5Ac(a2-3)Gal(b1-4)]GlcNAc
# Outline: as §1
# Neu5Ac(a2-3)Gal(b1-4)Glc = molecular target: Neu5Ac(a2-3)Gal(b1-4)Glc
# Outline: as §1
# [10] = molecular target: Neu5Ac(a2-3)Gal(b1-4)GlcNAc
# Outline: as §1
# [11] = molecular target: Neu5Ac(a2-3)Gal(b1-4)GlcNAc(b1-2)Man
# Outline: as §1
# [12] = molecular target: Neu5Ac(a2-3)Gal(b1-4)GlcNAc(b1-2)Man(a1-3)[GlcNAc(b1-4)][Neu5Ac(a2-3)Gal(b1-4)GlcNAc(b1-2)Man(a1-6)]Man(b1-4)GlcNAc(b1-4)GlcNAc
# Outline: as §1
# [13] = molecular target: Neu5Ac(a2-3)Gal(b1-4)GlcNAc(b1-2)Man(a1-3)[Neu5Ac(a2-3)Gal(b1-4)GlcNAc(b1-2)Man(a1-6)]Man(b1-4)GlcNAc(b1-4)GlcNAc
# Outline: as §1
# [14] = molecular target: Neu5Ac(a2-3)Gal(b1-4)GlcNAc(b1-2)Man(a1-3)[Neu5Ac(a2-3)Gal(b1-4)GlcNAc(b1-2)Man(a1-6)]Man(b1-4)GlcNAc(b1-4)[Fuc(a1-6)]GlcNAc
# Outline: as §1
# [15] = molecular target: Neu5Ac(a2-3)Gal(b1-4)GlcNAc(b1-2)Man(a1-3)[Neu5Ac(a2-6)Gal(b1-4)GlcNAc(b1-2)Man(a1-6)]Man(b1-4)GlcNAc(b1-4)GlcNAc
# Outline: as §1
# [16] = molecular target: Neu5Ac(a2-3)Gal(b1-4)GlcNAc(b1-2)[Neu5Ac(a2-3)Gal(b1-4)GlcNAc(b1-4)]Man(a1-3)[GlcNAc(b1-4)][Neu5Ac(a2-3)Gal(b1-4)GlcNAc(b1-2)[Neu5Ac(a2-3)Gal(b1-4)GlcNAc(b1-6)]Man(a1-6)]Man(b1-4)GlcNAc(b1-4)GlcNAc
# Outline: as §1
# [17] = molecular target: Neu5Ac(a2-3)Gal(b1-4)GlcNAc(b1-2)[Neu5Ac(a2-3)Gal(b1-4)GlcNAc(b1-4)]Man(a1-3)[GlcNAc(b1-4)][Neu5Ac(a2-3)Gal(b1-4)GlcNAc(b1-4)Man(a1-6)]Man(b1-4)GlcNAc(b1-4)GlcNAc
# Outline: as §1
# [18] = molecular target: Neu5Ac(a2-3)Gal(b1-4)GlcNAc(b1-2)[Neu5Ac(a2-3)Gal(b1-4)GlcNAc(b1-6)]Man(a1-6)[Neu5Ac(a2-3)Gal(b1-4)GlcNAc(b1-2)Man(a1-3)][GlcNAc(b1-4)]Man(b1-4)GlcNAc(b1-4)GlcNAc
# Outline: as §1
# [19] = molecular target: Neu5Ac(a2-3)Gal(b1-4)GlcNAc(b1-3)Gal
# Outline: as §1
# [20] = molecular target: Neu5Ac(a2-3)Gal(b1-4)GlcNAc(b1-3)Gal(b1-3)GlcNAc
# Outline: as §1
# [21] = molecular target: Neu5Ac(a2-3)Gal(b1-4)GlcNAc(b1-3)Gal(b1-4)GlcNAc
# Outline: as §1
binder,measurement,setting,value
B1,glycan array binding signal (z-score),[1],0.286
same,glycan array binding signal (z-score),[2],0.641
same,glycan array binding signal (z-score),[3],-0.312
same,glycan array binding signal (z-score),[4],-0.348
same,glycan array binding signal (z-score),[5],-0.478
same,glycan array binding signal (z-score),[6],-0.276
same,glycan array binding signal (z-score),[7],-0.35
same,glycan array binding signal (z-score),[8],-0.279
same,glycan array binding signal (z-score),[9],0.061
same,glycan array binding signal (z-score),Neu5Ac(a2-3)Gal(b1-4)Glc,-0.134
same,glycan array binding signal (z-score),[10],0.027
same,glycan array binding signal (z-score),[11],0.151
same,glycan array binding signal (z-score),[12],-0.189
same,glycan array binding signal (z-score),[13],-0.234
same,glycan array binding signal (z-score),[14],-0.471
same,glycan array binding signal (z-score),[15],0.255
same,glycan array binding signal (z-score),[16],-0.425
same,glycan array binding signal (z-score),[17],0.211
same,glycan array binding signal (z-score),[18],-0.273
same,glycan array binding signal (z-score),[19],-0.189
same,glycan array binding signal (z-score),[20],-0.122
same,glycan array binding signal (z-score),[21],0.257

# Reference: the supplement of paper PMC8728848
